# Source: PubChem BioAssay AID434955 (Southern Research Specialized Biocontainment Screening …, 2010)
# The other results are listed elsewhere or left out. Shown are side measurements of this screen, not its main read-out; they come without a call. Most of these compounds were active or inconclusive in the main read-out, so they are no random draw.
# Assay: beta-lactam sensitization of Mtb H37Rv, H37Rv (AID 434955);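 note: growth measured after seven days incubation then overnight dye step; 0% = bacteria only wells and 100% = bacteria with antibiotic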
# Settings: M. tuberculosis H37Rv growth with meropenem, percent inhibition; measured here: primary screen without meropenem; at 25 µM
row,Compound,inhibition
1,COc1ccc(-c2cc3ccccc3oc2=O)cc1NC(=S)NC(=O)c1ccc2c(c1)OCCO2,-2.14%
2,CCOc1cc(N2CCOCC2)c(OCC)cc1NC(=O)COc1ccc2ccc(=O)oc2c1,5.76%
3,Cc1ccc(S(=O)(=O)c2nc(-c3ccco3)oc2N2CCC(C)CC2)cc1,8.39%
4,Cc1nnc(SCC(=O)Nc2nccs2)s1,-4.97%
5,O=C(NCC1CCCN(Cc2nccs2)C1)c1cccc2ccccc12 (centres undefined),-2.1%
6,Cc1cc(C)nc(NS(=O)(=O)c2ccc(NS(=O)(=O)c3ccc(C#N)cc3)cc2)n1,3.85%
7,O=C1C(Oc2ccccc2)C(c2ccc3c(c2)OCO3)N1CCc1ccc(F)cc1 (centres undefined),9.88%
8,Nc1nc2n(n1)C(c1c(F)cccc1Cl)CC(c1ccc(F)cc1)N2 (centres undefined),-7.2%
9,O=C(O)CN1C(=O)/C(=C\c2cc(Br)ccc2OCc2ccccc2F)SC1=S,3.09%
10,CC/C(=N\NC(=S)NC(C)C)c1ccc(OC)c(OC)c1,37.9%
11,CC(C)CC(=O)NC(=S)Nc1ccc(N2CCN(C(=O)c3cccs3)CC2)cc1,5.15%
12,O=C(/C=C/c1ccc([N+](=O)[O-])cc1)c1cccs1,6.74%
13,CCc1ccc(N2CC34C=CC(O3)C(C(=O)OC(C)C)C4C2=O)cc1 (centres undefined),-9.79%
14,COC(=O)C(NC(=O)c1ccc(OC)cc1)(Nc1ncc(S(=O)(=O)c2ccc([N+](=O)[O-])cc2)s1)C(F)(F)F (centres undefined),94.1%
15,CCN(CC)CCCn1c(=S)[nH]c2ccc(Cl)cc2c1=O,1.05%
16,COCCCNC(=O)C1CC(=O)OC1c1ccc(OC)c(OC)c1 (centres undefined),7.78%
17,COc1ccc(-c2cc(C(=O)Nc3ccc(S(=O)(=O)Nc4ncccn4)cc3)c3ccccc3n2)cc1,5.51%
18,CSc1nc(N2CCOCC2)c2ccccc2n1,3.62%
19,O=C1COc2ccc(C(=O)/C=C/c3ccccc3)cc2N1,24.7%
20,CCn1cc(S(=O)(=O)c2ccc(Cl)cc2)c(=O)c2cc(OC)ccc21,13.1%
21,COCCn1c(Cc2ccccc2)nnc1SCC(=O)N(C)C,-10.7%
22,CCC1CCCCN1C(=O)CSc1nnc(-c2ccc(Cl)cc2)o1 (centres undefined),1.07%
23,COc1cc(OC)c(C(=O)NNC(=S)NC2CCCCC2)cc1OC,-2.47%
24,CN1CCN(S(=O)(=O)c2cccc([N+](=O)[O-])c2)CC1,-2.5%
25,Cc1cc(C(=O)CSc2nc3ccccc3n2CCC#N)c(C)n1Cc1cccs1,-2.36%
26,CCc1[nH]nc(C(=O)N2CCCC(N3CCN(c4ccccc4C)CC3)C2)c1C (centres undefined),11.2%
27,Cc1cc(Nc2ccccc2F)n2ncnc2n1,-4.52%
28,Cc1cc(C)c2c(-n3cccc3)c(C(=O)O)sc2n1,4.78%
29,Cc1oc(-c2cccc(Cl)c2)nc1CN1CCC(C(=O)NCCCN2CCCC2=O)CC1,-14.8%
